# According to the supplement of paper PMC8728848:
# The other results are listed elsewhere or left out.
# Assays:
# Assay in all cases: glycan array binding signal (z-score within array); higher = stronger binding
# Settings in all cases: glycan notation: IUPAC condensed, linker removed
# [1] = target: Gal(b1-4)GlcNAc(b1-2)[Gal(b1-4)GlcNAc(b1-6)]Man(a1-6)[Gal(b1-4)GlcNAc(b1-2)Man(a1-3)]Man(b1-4)GlcNAc(b1-4)[Fuc(a1-6)]GlcNAc
# Method in brief: (§1)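 Glycan array data were curated from 3228 arrays in the Consortium for Functional Glycomics database and kept only where the protein sequence was available. Glycan names were converted to IUPAC-condensed notation, and columns mapping to the same glycan were averaged. The binding signal is a within-array Z-score, averaged across arrays of the same protein sequence at different concentrations or buffers and across linkers. Negative Z-scores can be read as non-binding.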
# [2] = target: Gal(b1-4)GlcNAc(b1-2)[Gal(b1-4)GlcNAc(b1-6)]Man(a1-6)[GlcNAc(b1-4)][Gal(b1-4)GlcNAc(b1-2)Man(a1-3)]Man(b1-4)GlcNAc(b1-4)GlcNAc
# Method in brief: as §1
# [3] = target: Gal(b1-4)GlcNAc(b1-2)[Gal(b1-4)GlcNAc(b1-6)]Man(a1-6)[GlcNAc(b1-4)][Gal(b1-4)GlcNAc(b1-2)[Gal(b1-4)GlcNAc(b1-4)]Man(a1-3)]Man(b1-4)GlcNAc(b1-4)[Fuc(a1-6)]GlcNAc
# Method in brief: as §1
# [4] = target: Gal(b1-4)GlcNAc(b1-3)Gal(b1-3)GalNAc
# Method in brief: as §1
# [5] = target: Gal(b1-4)GlcNAc(b1-3)Gal(b1-3)GlcNAc
# Method in brief: as §1
# [6] = target: Gal(b1-4)GlcNAc(b1-3)Gal(b1-4)Glc
# Method in brief: as §1
# [7] = target: Gal(b1-4)GlcNAc(b1-3)Gal(b1-4)GlcNAc
# Method in brief: as §1
# [8] = target: Gal(b1-4)GlcNAc(b1-3)Gal(b1-4)GlcNAc(b1-2)Man(a1-3)[Gal(b1-4)GlcNAc(b1-3)Gal(b1-4)GlcNAc(b1-2)Man(a1-6)]Man(b1-4)GlcNAc(b1-4)GlcNAc
# Method in brief: as §1
# [9] = target: Gal(b1-4)GlcNAc(b1-3)Gal(b1-4)GlcNAc(b1-2)Man(a1-3)[Gal(b1-4)GlcNAc(b1-3)Gal(b1-4)GlcNAc(b1-2)Man(a1-6)]Man(b1-4)GlcNAc(b1-4)[Fuc(a1-6)]GlcNAc
# Method in brief: as §1
# [10] = target: Gal(b1-4)GlcNAc(b1-3)Gal(b1-4)GlcNAc(b1-2)[Gal(b1-4)GlcNAc(b1-3)Gal(b1-4)GlcNAc(b1-6)]Man(a1-6)[Gal(b1-4)GlcNAc(b1-3)Gal(b1-4)GlcNAc(b1-2)Man(a1-3)]Man(b1-4)GlcNAc(b1-4)GlcNAc
# Method in brief: as §1
# [11] = target: Gal(b1-4)GlcNAc(b1-3)Gal(b1-4)GlcNAc(b1-2)[Gal(b1-4)GlcNAc(b1-3)Gal(b1-4)GlcNAc(b1-6)]Man(a1-6)[Gal(b1-4)GlcNAc(b1-3)Gal(b1-4)GlcNAc(b1-2)Man(a1-3)]Man(b1-4)GlcNAc(b1-4)[Fuc(a1-6)]GlcNAc
# Method in brief: as §1
# [12] = target: Gal(b1-4)GlcNAc(b1-3)Gal(b1-4)GlcNAc(b1-3)Gal(b1-4)GlcNAc
# Method in brief: as §1
# [13] = target: Gal(b1-4)GlcNAc(b1-3)Gal(b1-4)GlcNAc(b1-3)Gal(b1-4)GlcNAc(b1-2)Man(a1-3)[Gal(b1-4)GlcNAc(b1-3)Gal(b1-4)GlcNAc(b1-3)Gal(b1-4)GlcNAc(b1-2)Man(a1-6)]Man(b1-4)GlcNAc(b1-4)GlcNAc
# Method in brief: as §1
# [14] = target: Gal(b1-4)GlcNAc(b1-3)Gal(b1-4)GlcNAc(b1-3)Gal(b1-4)GlcNAc(b1-2)Man(a1-3)[Gal(b1-4)GlcNAc(b1-3)Gal(b1-4)GlcNAc(b1-3)Gal(b1-4)GlcNAc(b1-2)Man(a1-6)]Man(b1-4)GlcNAc(b1-4)[Fuc(a1-6)]GlcNAc
# Method in brief: as §1
# [15] = target: Gal(b1-4)GlcNAc(b1-3)Gal(b1-4)GlcNAc(b1-3)Gal(b1-4)GlcNAc(b1-2)[Gal(b1-4)GlcNAc(b1-3)Gal(b1-4)GlcNAc(b1-3)Gal(b1-4)GlcNAc(b1-6)]Man(a1-6)[Gal(b1-4)GlcNAc(b1-3)Gal(b1-4)GlcNAc(b1-3)Gal(b1-4)GlcNAc(b1-2)Man(a1-3)]Man(b1-4)GlcNAc(b1-4)[Fuc(a1-6)]GlcNAc
# Method in brief: as §1
# [16] = target: Gal(b1-4)GlcNAc(b1-3)Gal(b1-4)GlcNAc(b1-3)Gal(b1-4)GlcNAc(b1-3)Gal(b1-4)GlcNAc(b1-2)Man(a1-3)[Gal(b1-4)GlcNAc(b1-3)Gal(b1-4)GlcNAc(b1-3)Gal(b1-4)GlcNAc(b1-3)Gal(b1-4)GlcNAc(b1-2)Man(a1-6)]Man(b1-4)GlcNAc(b1-4)GlcNAc
# Method in brief: as §1
# [17] = target: Gal(b1-4)GlcNAc(b1-3)Gal(b1-4)GlcNAc(b1-3)Gal(b1-4)GlcNAc(b1-3)Gal(b1-4)GlcNAc(b1-2)Man(a1-3)[Gal(b1-4)GlcNAc(b1-3)Gal(b1-4)GlcNAc(b1-3)Gal(b1-4)GlcNAc(b1-3)Gal(b1-4)GlcNAc(b1-2)Man(a1-6)]Man(b1-4)GlcNAc(b1-4)[Fuc(a1-6)]GlcNAc
# Method in brief: as §1
# [18] = target: Gal(b1-4)GlcNAc(b1-3)Gal(b1-4)GlcNAc(b1-3)Gal(b1-4)GlcNAc(b1-3)Gal(b1-4)GlcNAc(b1-2)[Gal(b1-4)GlcNAc(b1-3)Gal(b1-4)GlcNAc(b1-3)Gal(b1-4)GlcNAc(b1-3)Gal(b1-4)GlcNAc(b1-6)]Man(a1-6)[Gal(b1-4)GlcNAc(b1-3)Gal(b1-4)GlcNAc(b1-3)Gal(b1-4)GlcNAc(b1-3)Gal(b1-4)GlcNAc(b1-2)Man(a1-3)]Man(b1-4)GlcNAc(b1-4)[Fuc(a1-6)]GlcNAc
# Method in brief: as §1
# [19] = target: Gal(b1-4)GlcNAc(b1-3)Gal(b1-4)GlcNAc(b1-3)Gal(b1-4)GlcNAc(b1-3)Gal(b1-4)GlcNAc(b1-3)Gal(b1-4)GlcNAc(b1-2)Man(a1-3)[Gal(b1-4)GlcNAc(b1-3)Gal(b1-4)GlcNAc(b1-3)Gal(b1-4)GlcNAc(b1-3)Gal(b1-4)GlcNAc(b1-3)Gal(b1-4)GlcNAc(b1-2)Man(a1-6)]Man(b1-4)GlcNAc(b1-4)GlcNAc
# Method in brief: as §1
# [20] = target: Gal(b1-4)GlcNAc(b1-3)Gal(b1-4)GlcNAc(b1-3)Gal(b1-4)GlcNAc(b1-3)Gal(b1-4)GlcNAc(b1-3)Gal(b1-4)GlcNAc(b1-2)Man(a1-3)[Gal(b1-4)GlcNAc(b1-3)Gal(b1-4)GlcNAc(b1-3)Gal(b1-4)GlcNAc(b1-3)Gal(b1-4)GlcNAc(b1-3)Gal(b1-4)GlcNAc(b1-2)Man(a1-6)]Man(b1-4)GlcNAc(b1-4)[Fuc(a1-6)]GlcNAc
# Method in brief: as §1
# [21] = target: Gal(b1-4)GlcNAc(b1-3)Gal(b1-4)GlcNAc(b1-3)Gal(b1-4)GlcNAc(b1-3)Gal(b1-4)GlcNAc(b1-3)Gal(b1-4)GlcNAc(b1-2)[Gal(b1-4)GlcNAc(b1-3)Gal(b1-4)GlcNAc(b1-3)Gal(b1-4)GlcNAc(b1-3)Gal(b1-4)GlcNAc(b1-3)Gal(b1-4)GlcNAc(b1-6)]Man(a1-6)[Gal(b1-4)GlcNAc(b1-3)Gal(b1-4)GlcNAc(b1-3)Gal(b1-4)GlcNAc(b1-3)Gal(b1-4)GlcNAc(b1-3)Gal(b1-4)GlcNAc(b1-2)Man(a1-3)]Man(b1-4)GlcNAc(b1-4)[Fuc(a1-6)]GlcNAc
# Method in brief: as §1
# [22] = target: Gal(b1-4)GlcNAc(b1-3)Gal(b1-4)GlcNAc(b1-3)Gal(b1-4)GlcNAc(b1-3)Gal(b1-4)GlcNAc(b1-3)Gal(b1-4)GlcNAc(b1-3)Gal(b1-4)GlcNAc(b1-2)Man(a1-3)[Gal(b1-4)GlcNAc(b1-3)Gal(b1-4)GlcNAc(b1-3)Gal(b1-4)GlcNAc(b1-3)Gal(b1-4)GlcNAc(b1-3)Gal(b1-4)GlcNAc(b1-3)Gal(b1-4)GlcNAc(b1-2)Man(a1-6)]Man(b1-4)GlcNAc(b1-4)GlcNAc
# Method in brief: as §1
# [23] = target: Gal(b1-4)GlcNAc(b1-3)Gal(b1-4)GlcNAc(b1-3)GalNAc
# Method in brief: as §1
# [24] = target: Gal(b1-4)GlcNAc(b1-3)Gal(b1-4)GlcNAc(b1-3)[Gal(b1-4)GlcNAc(b1-3)Gal(b1-4)GlcNAc(b1-6)]GalNAc
# Method in brief: as §1
# [25] = target: Gal(b1-4)GlcNAc(b1-3)Gal(b1-4)GlcNAc(b1-6)[Gal(b1-3)]GalNAc
# Method in brief: as §1
# [26] = target: Gal(b1-4)GlcNAc(b1-3)Gal(b1-4)[Fuc(a1-3)]GlcNAc(b1-3)Gal(b1-4)[Fuc(a1-3)]GlcNAc
# Method in brief: as §1
# [27] = target: Gal(b1-4)GlcNAc(b1-3)GalNAc
# Method in brief: as §1
# [28] = target: Gal(b1-4)GlcNAc(b1-3)[Fuc(a1-3)GlcNAc(b1-6)]Gal(b1-4)Glc
# Method in brief: as §1
# [29] = target: Gal(b1-4)GlcNAc(b1-3)[Gal(b1-4)GlcNAc(b1-6)]Gal(b1-4)GlcNAc
# Method in brief: as §1
# [30] = target: Gal(b1-4)GlcNAc(b1-3)[GlcNAc(b1-6)]Gal(b1-4)GlcNAc
# Method in brief: as §1
# [31] = target: Gal(b1-4)GlcNAc(b1-6)Gal(b1-4)GlcNAc
# Method in brief: as §1
# [32] = target: Gal(b1-4)GlcNAc(b1-6)GalNAc
# Method in brief: as §1
# [33] = target: Gal(b1-4)GlcNAc(b1-6)[Gal(b1-3)]GalNAc
# Method in brief: as §1
# [34] = target: Gal(b1-4)GlcNAc(b1-6)[Gal(b1-4)GlcNAc(b1-3)]GalNAc
# Method in brief: as §1
# [35] = target: Gal(b1-4)GlcNAc6P
# Method in brief: as §1
# [36] = target: Gal(b1-6)Gal
# Method in brief: as §1
# [37] = target: Gal3S(b1-3)GalNAc
# Method in brief: as §1
# [38] = target: Gal3S(b1-3)GlcNAc
# Method in brief: as §1
binder,measurement,setting,value
"PVL (Psathyrella velutina), Q309D1_9AGAR (protein) MSVVVISQALPVPTRIPGVADLVGFGNGGVYIIRNSLLIQVVKVINNFGYDAGGWRVEKHVRLLADTTGDNQPDVVGFGENGVWISTNNGNNTFVDPPKMVLANFAYAAGGWRVEKHIRFMADLRKTGRADIVGFGDGGIYISRNNGGGQFAPAQLALNNFGYAQGWRLDRHLRFLADVTGDGLLDVVGFGENQVYIARNSGNGTFQPAQAVVNNFCIGAGGWTISAHPRVVADLTGDRKADILGFGVAGVYTSLNNGNGTFGAVNLVLKDFGVNSGWRVEKHVRCVSSLTNKKVGDIIGFGDAGVYVALNNGNGTFGPVKRVIDNFGYNQGWRVDKHPRFVVDLTGDGCADIVGFGENSVWACMNKGDGTFGPIMKLIDDMTVSKGWTLQKTVRYAANLYL",glycan array binding signal (z-score),[1],-0.334
same,glycan array binding signal (z-score),[2],-0.363
same,glycan array binding signal (z-score),[3],-0.367
same,glycan array binding signal (z-score),[4],-0.121
same,glycan array binding signal (z-score),[5],0.17
same,glycan array binding signal (z-score),[6],-0.168
same,glycan array binding signal (z-score),[7],0.215
same,glycan array binding signal (z-score),[8],-0.244
same,glycan array binding signal (z-score),[9],0.09
same,glycan array binding signal (z-score),[10],-0.171
same,glycan array binding signal (z-score),[11],0.199
same,glycan array binding signal (z-score),[12],-0.277
same,glycan array binding signal (z-score),[13],0.7
same,glycan array binding signal (z-score),[14],0.527
same,glycan array binding signal (z-score),[15],0.536
same,glycan array binding signal (z-score),[16],0.956
same,glycan array binding signal (z-score),[17],0.639
same,glycan array binding signal (z-score),[18],0.917
same,glycan array binding signal (z-score),[19],1.01
same,glycan array binding signal (z-score),[20],0.758
same,glycan array binding signal (z-score),[21],1.08
same,glycan array binding signal (z-score),[22],1.15
same,glycan array binding signal (z-score),[23],0.218
same,glycan array binding signal (z-score),[24],-0.343
same,glycan array binding signal (z-score),[25],-0.354
same,glycan array binding signal (z-score),[26],-0.176
same,glycan array binding signal (z-score),[27],-0.258
same,glycan array binding signal (z-score),[28],-0.325
same,glycan array binding signal (z-score),[29],-0.306
same,glycan array binding signal (z-score),[30],0.634
same,glycan array binding signal (z-score),[31],-0.366
same,glycan array binding signal (z-score),[32],-0.338
same,glycan array binding signal (z-score),[33],-0.073
same,glycan array binding signal (z-score),[34],-0.321
same,glycan array binding signal (z-score),[35],-0.356
same,glycan array binding signal (z-score),[36],-0.37
same,glycan array binding signal (z-score),[37],-0.343
same,glycan array binding signal (z-score),[38],-0.362
